Assay results reported in PubChem BioAssay AID1030 (National Center for Advancing Translational Sciences (NCATS), 2008).
The whole screen tested about 220,000 compounds, of which about 16,000 (7.3%) were called active. The inconclusive results got no clear call from the source; some entries with a clear call stand among them for comparison. Calls follow the shape of the dose curve; as a rule, active = well fitted inhibition curve with a large enough effect (not every such curve was filed as active); inconclusive = small, poorly fitted or top-dose-only effect, or another doubt; inactive = no such curve, though single readings can be large or run the other way. No potency is given beside an inconclusive call; the fits are too rough.

Target: Aldehyde dehydrogenase 1A1 (Homo sapiens) (UniProt P00352)
UniProt P00352, sequence (P00352 whole entry, looked up): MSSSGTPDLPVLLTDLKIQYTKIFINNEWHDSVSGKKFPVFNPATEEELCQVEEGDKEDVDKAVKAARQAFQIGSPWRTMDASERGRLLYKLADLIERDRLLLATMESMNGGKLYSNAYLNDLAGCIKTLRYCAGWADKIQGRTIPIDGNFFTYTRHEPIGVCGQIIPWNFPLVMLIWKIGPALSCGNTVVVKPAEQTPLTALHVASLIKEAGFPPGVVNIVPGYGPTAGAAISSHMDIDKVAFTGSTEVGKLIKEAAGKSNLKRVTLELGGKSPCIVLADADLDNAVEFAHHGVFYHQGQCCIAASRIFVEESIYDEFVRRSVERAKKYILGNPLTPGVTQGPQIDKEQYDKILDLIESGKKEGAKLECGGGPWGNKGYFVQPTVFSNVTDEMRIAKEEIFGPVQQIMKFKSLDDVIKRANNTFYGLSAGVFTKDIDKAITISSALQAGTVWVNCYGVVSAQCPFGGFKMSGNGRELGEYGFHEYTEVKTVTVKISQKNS
Test: qHTS Assay for Inhibitors of Aldehyde Dehydrogenase 1 (ALDH1A1);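 as to activity, negative = inhibition: plate controls were no enzyme wells and a reference inhibitor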
Conditions: Purified ALDH1A1, NADH fluorescence, propionaldehyde substrate; series mostly up to 75.3 µM; activity, negative = inhibition: at the top concentration
Potency is read from the fitted curve at half-maximal effect; tags tell the direction and shape of the fitted curve.

Question: For COc1ccc(C2=NO[C@@H]3C(=O)N(Cc4ccccc4)C(=O)[C@H]23)cc1OC, which Potency is on record?
Answer: Its Potency is inconclusive [inhibitor, single point].

Question: How did the “activity, negative = inhibition” value turn out when CCN1CCCC1CNC(=O)C1c2cc(OC)c(OC)cc2C(=O)N(C)C1c1cccnc1 (stereo unspecified) was run?
Answer: Its value is inactive: 5.95%.

Question: Which Potency does the source give for c1cc2c(cc1-c1csc(NNC3=NCCCCC3)n1)OCCO2 here?
Answer: The Potency was active: 20 µM.

Question: Which Potency does the source give for COC(=O)C(O)(NC(=O)NC(C)=O)C(F)(F)F (stereo unspecified) here?
Answer: Its Potency is inconclusive [inhibitor, partial curve].

Question: With CC(=O)N1CCc2cc(S(=O)(=O)NC(Cc3ccccc3)C(=O)NC3CCCCCC3)ccc21 (stereo unspecified) as the compound, how does the Potency read?
Answer: The Potency was inconclusive [inhibitor, single point].

Question: How did the Potency turn out when O=C(NCCc1c[nH]c2ccccc12)C(=O)NCC1OCCCN1S(=O)(=O)c1ccccc1 (stereo unspecified) was run?
Answer: The Potency was inconclusive [inhibitor, single point].

Question: COc1ccc2cc(C(c3nnnn3CCc3ccccc3)N3CCC(O)CC3)c(=O)[nH]c2c1 (stereo unspecified) was tested. Which Potency did it give?
Answer: Its Potency is inconclusive [inhibitor, partial curve].

Question: With COc1ccc(N(CC(=O)N2CCC(C)CC2)S(=O)(=O)c2c(C)nn(C)c2C)cc1 as the compound, how does the Potency read?
Answer: Its Potency is inconclusive [inhibitor, single point].

Question: For Cc1noc(C)c1COC(=O)C(c1ccccc1)c1ccccc1, which Potency is on record?
Answer: Its Potency is active: 11.2 µM.

Question: Which Potency does the source give for CC1CCc2c(C(=O)N3CCN(S(=O)(=O)c4cccs4)CC3)csc2C1 (stereo unspecified) here?
Answer: The Potency was inconclusive [inhibitor, partial curve].

Question: For COc1ccc(N2COC3c4cccc5cccc(c45)C32)cc1 (stereo unspecified), which Potency is on record?
Answer: The Potency was active: 18.9 µM.

Question: How did the “activity, negative = inhibition” value turn out when NC(=O)c1cc(N)ccc1N1CCCC1 was run?
Answer: The value was inactive: -2.9%.

Question: For COc1ccc(OC)c(NC(=O)CSc2nnc(Cc3cccn3C)n2CCc2ccccc2)c1, which “activity, negative = inhibition” value is on record?
Answer: Its value is inactive: 7.6%.

Question: How did the Potency turn out when CCOc1ccc(-c2nnc(SCC(=O)Nc3ccc4c(c3)c3ccccc3n4CC)n2N)cc1 was run?
Answer: The Potency was inconclusive [inhibitor, partial curve, poor fit].

Question: With CN1CCN(CCCC(=O)c2ccc(C3CCCC3)cc2)CC1 as the compound, how does the Potency read?
Answer: The Potency was inconclusive [inhibitor, partial curve].

Question: For COc1ccccc1N1CCc2c(C)nc3c(OC)cccc3c21, which Potency is on record?
Answer: Its Potency is inconclusive [inhibitor, single point].

Question: How did the Potency turn out when COC(=O)c1ccc2[nH]c(C)cc(=O)c2c1 was run?
Answer: The Potency was inconclusive [inhibitor, partial curve].

Question: CCN(CC)CCCNC1=C(Cl)C(=O)c2ccccc2C1=O was tested. Which “activity, negative = inhibition” value did it give?
Answer: Its value is inactive: 3.11%.

Question: How did the Potency turn out when Cc1cc(C)nc(N(C#N)CC(=O)N2CCC(C(N)=O)CC2)n1 was run?
Answer: The Potency was inconclusive [inhibitor, single point].

Question: COc1ccc(S(=O)(=O)Cc2ccc(C(=O)NC3CCCC3)o2)cc1 was tested. Which Potency did it give?
Answer: Its Potency is inconclusive [inhibitor, partial curve].

Question: For CCN(CC)S(=O)(=O)c1cccc(NC(=O)Nc2cccc(C(F)(F)F)c2)c1, which “activity, negative = inhibition” value is on record?
Answer: Its value is inactive: 5.11%.

Question: For COc1ccc2c(CC(=O)OCC(=O)Nc3sc4c(c3C#N)CCC(C)C4)coc2c1 (stereo unspecified), which Potency is on record?
Answer: Its Potency is inconclusive [inhibitor, partial curve].

Question: For CCOc1ccc(NC(=O)N[C@@H](CCSC)C(=O)OC)cc1, which “activity, negative = inhibition” value is on record?
Answer: Its value is inactive: 3.22%.

Question: Which Potency does the source give for CCN(CC)S(=O)(=O)c1cccc(-c2nnc(SCC(=O)c3ccc(Cl)s3)n2C)c1 here?
Answer: The Potency was inconclusive [inhibitor, single point].

Question: COc1ccc(S(=O)(=O)Nc2ccccc2C(=O)NCc2ccco2)cc1 was tested. Which Potency did it give?
Answer: Its Potency is inconclusive [inhibitor, single point].

Question: Which Potency does the source give for COC(=O)c1cccc(NC(=O)CN(c2ccc3c(c2)OCO3)S(C)(=O)=O)c1C here?
Answer: Its Potency is inconclusive [inhibitor, single point].

Question: Which Potency does the source give for Oc1ccccc1CNc1cnc2ccccc2c1 here?
Answer: Its Potency is inconclusive [inhibitor, single point].

Question: CCN1/C(=C2\SC(=S)N(Cc3ccccc3)C2=O)Sc2ccccc21 was tested. Which “activity, negative = inhibition” value did it give?
Answer: Its value is inactive: -1.32%.

Question: For O=C(c1cc(-c2cccs2)nc2ccccc12)N1CCN(c2ccccc2O)CC1, which Potency is on record?
Answer: The Potency was inconclusive [inhibitor, partial curve].

Question: How did the Potency turn out when CC(C)c1ccc(NNC(=O)C2CCC2)cc1 was run?
Answer: The Potency was inconclusive [inhibitor, single point].

Question: Which Potency does the source give for COc1ccc(OC)c(NC(=O)C2COc3ccccc3O2)c1 (stereo unspecified) here?
Answer: The Potency was inconclusive [inhibitor, single point].

Question: Cc1ccc(-c2nc3ccccc3s2)cc1NC(=S)NC(=O)/C=C/c1ccco1 was tested. Which “activity, negative = inhibition” value did it give?
Answer: Its value is inactive: 0.994%.

Question: COc1ccc2[nH]c(=O)c(CN(Cc3nnnn3Cc3ccc(F)cc3)CC3CCCO3)cc2c1 (stereo unspecified) was tested. Which Potency did it give?
Answer: The Potency was inconclusive [inhibitor, partial curve].

Question: How did the Potency turn out when O=C(NCc1ccco1)c1ccc(-c2csnn2)cc1 was run?
Answer: Its Potency is inconclusive [inhibitor, single point].

Question: With Cc1ccc(S(=O)(=O)NCc2ccccc2)cc1 as the compound, how does the “activity, negative = inhibition” value read?
Answer: Its value is inactive: -3.98%.

Question: Which “activity, negative = inhibition” value does the source give for O=C(NCC1CCCO1)c1csc2c1CCCCC2 (stereo unspecified) here?
Answer: The value was inactive: -12.4%.

Question: For O=C(CCCCn1c(=O)[nH]c2ccccc2c1=O)NCCc1c[nH]c2ccccc12, which Potency is on record?
Answer: Its Potency is inconclusive [inhibitor, single point].

Question: Which Potency does the source give for O=C(NC(=S)Nc1ccc(Cc2ccncc2)cc1)c1ccccc1 here?
Answer: The Potency was active: 17.8 µM.

Question: COC(=O)c1ccc2c(c1)c(C#Cc1ccccc1)c(-c1ccccc1)n2C was tested. Which Potency did it give?
Answer: Its Potency is inconclusive [inhibitor, partial curve].

Question: Which Potency does the source give for COc1ccc(C(=O)Nc2sc3c(c2C#N)CCN(C(C)=O)C3)cc1 here?
Answer: The Potency was inconclusive [inhibitor, partial curve].

Question: Which “activity, negative = inhibition” value does the source give for CC(C)CC(O)(CC(C)C)C(=O)NNc1ccccc1 here?
Answer: The value was inactive: 7.11%.

Question: How did the Potency turn out when Cc1sc2nc(C3CC3)nc(NCCNS(C)(=O)=O)c2c1C was run?
Answer: Its Potency is active: 31.6 µM.

Question: With COc1ccc(C(C(=O)NCC2CCCO2)N(C(=O)CNC(=O)c2cccs2)c2ccc(C(C)=O)cc2)cc1OC (stereo unspecified) as the compound, how does the “activity, negative = inhibition” value read?
Answer: The value was inactive: 4.55%.

Question: O=C(C[N+]1(CC#Cc2ccccc2)CCOCC1)c1ccccc1 was tested. Which Potency did it give?
Answer: The Potency was active: 4.47 µM.

Question: Which Potency does the source give for O=C(CSC(=S)N1CCCCC1)Nc1ncc2c(n1)CC(c1ccco1)CC2=O (stereo unspecified) here?
Answer: The Potency was active: 3.98 µM.

Question: Which Potency does the source give for Cc1ccccc1NC(=S)N/N=C/C(C)c1ccccc1 (stereo unspecified) here?
Answer: The Potency was inconclusive [inhibitor, single point].
